Source: the supplement of paper PMC10369915
This is one part of the list. Rule as the data show it: active = 3.2 or more and inactive = the rest. Most of these values are background signal.
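Also: displayed peptides selected on beads carrying the immobilized SH2 domain, with library peptides lacking any tyrosine serving as negative controls.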

What follows are binders tested against SHP2 C-SH2 domain E139D (assay: enrichment score (SH2-bound / input frequency) (ratio); bacterial display of known human phosphotyrosine sites (pTyr-Var adds point mutants) read by sequencing; higher = stronger binding; tyrosines were phosphorylated by kinases first). Conditions: peptide library: Human pTyr.
With EAQAQREYSEFKRQQ [BECN1_HUMAN_233_YA] the enrichment score was inactive: 0.752. For KSKELPLYCSGGLRF [BECN1_HUMAN_352], the enrichment score was inactive: 1.18. For MLVSIDRYLALVKTM [BKRB2_HUMAN_156], the enrichment score was inactive: 2.86. With ARIIDSEYTAQEGAK [BLK_HUMAN_389] the enrichment score was inactive: 0.714. In the case of IEKVVAIYDATKDKD [ABI1_HUMAN_455_YA], the enrichment score is reported as inactive: 0.871. EHSDSEMYVMPAEEN [BLNK_HUMAN_84] was tested, and the enrichment score was inactive: 1.31. With EERKEDQYMKMTVCL [BLVRA_HUMAN_198] the enrichment score was inactive: 1.75. For SQEVEVAYICSESSS [BLVRA_HUMAN_72], the enrichment score was inactive: 0.817. With ESSSHEDYIRQFLNA [BLVRA_HUMAN_83] the enrichment score was inactive: 0.559. In the case of DSNSKKIYGSQPNFN [BMX_HUMAN_224], the enrichment score is reported as inactive: 0.976. With SARIGDEYAEDSSDE [BOP1_HUMAN_122] the enrichment score was inactive: 1.38. In the case of CSTPQSQYYLAEKHL [BTK_HUMAN_344], the enrichment score is reported as inactive: 1.13. IAQGLRLYRPHLASE [BTK_HUMAN_617] was tested, and the enrichment score was inactive: 1.49. For DSERDELYAQWGKGL [BUD13_HUMAN_494], the enrichment score was inactive: 0.9. In the case of ALVLDCHYPEDEVGQ [C1QBP_HUMAN_188], the enrichment score is reported as inactive: 1.24. SRAMENQYSPTPGTD [C1QR1_HUMAN_644] was tested, and the enrichment score was inactive: 0.676. For SLEKHSWYHGPVSRN [ABL1_HUMAN_128], the enrichment score was inactive: 0.911. For AHGLLDPYNAFLSAV [CA2D3_HUMAN_924], the enrichment score was inactive: 0.795.

Each binder was assayed against SHP2 C-SH2 domain wild-type in the same assay as above. Conditions: peptide library: Human pTyr.
In the case of EAQAQREYSEFKRQQ [BECN1_HUMAN_233_YA], the enrichment score is reported as inactive: 0.813. For KSKELPLYCSGGLRF [BECN1_HUMAN_352], the enrichment score was inactive: 1.17. With MLVSIDRYLALVKTM [BKRB2_HUMAN_156] the enrichment score was inactive: 3.03. In the case of ARIIDSEYTAQEGAK [BLK_HUMAN_389], the enrichment score is reported as inactive: 0.75. With IEKVVAIYDATKDKD [ABI1_HUMAN_455_YA] the enrichment score was inactive: 0.785. EHSDSEMYVMPAEEN [BLNK_HUMAN_84] was tested, and the enrichment score was inactive: 1.1. For EERKEDQYMKMTVCL [BLVRA_HUMAN_198], the enrichment score was inactive: 1.28. With SQEVEVAYICSESSS [BLVRA_HUMAN_72] the enrichment score was inactive: 0.76. With ESSSHEDYIRQFLNA [BLVRA_HUMAN_83] the enrichment score was inactive: 0.673. With DSNSKKIYGSQPNFN [BMX_HUMAN_224] the enrichment score was inactive: 0.959. With SARIGDEYAEDSSDE [BOP1_HUMAN_122] the enrichment score was inactive: 1.16. In the case of CSTPQSQYYLAEKHL [BTK_HUMAN_344], the enrichment score is reported as inactive: 0.835. With IAQGLRLYRPHLASE [BTK_HUMAN_617] the enrichment score was inactive: 1.03. DSERDELYAQWGKGL [BUD13_HUMAN_494] was tested, and the enrichment score was inactive: 0.727. With ALVLDCHYPEDEVGQ [C1QBP_HUMAN_188] the enrichment score was inactive: 1.05. SRAMENQYSPTPGTD [C1QR1_HUMAN_644] was tested, and the enrichment score was inactive: 0.563. With SLEKHSWYHGPVSRN [ABL1_HUMAN_128] the enrichment score was inactive: 1.08. In the case of AHGLLDPYNAFLSAV [CA2D3_HUMAN_924], the enrichment score is reported as inactive: 0.753.

The binders below were run against SHP2 N-SH2 domain L43F in the same assay as above. Conditions: peptide library: Human pTyr.
For EAQAQREYSEFKRQQ [BECN1_HUMAN_233_YA], the enrichment score was inactive: 0.827. In the case of KSKELPLYCSGGLRF [BECN1_HUMAN_352], the enrichment score is reported as inactive: 1.23. MLVSIDRYLALVKTM [BKRB2_HUMAN_156] was tested, and the enrichment score was inactive: 2.57. In the case of ARIIDSEYTAQEGAK [BLK_HUMAN_389], the enrichment score is reported as inactive: 0.74. For IEKVVAIYDATKDKD [ABI1_HUMAN_455_YA], the enrichment score was inactive: 0.888. In the case of EHSDSEMYVMPAEEN [BLNK_HUMAN_84], the enrichment score is reported as inactive: 0.809. With EERKEDQYMKMTVCL [BLVRA_HUMAN_198] the enrichment score was inactive: 1.41. With SQEVEVAYICSESSS [BLVRA_HUMAN_72] the enrichment score was inactive: 1.05. ESSSHEDYIRQFLNA [BLVRA_HUMAN_83] was tested, and the enrichment score was inactive: 0.843. With DSNSKKIYGSQPNFN [BMX_HUMAN_224] the enrichment score was inactive: 0.798. SARIGDEYAEDSSDE [BOP1_HUMAN_122] was tested, and the enrichment score was inactive: 1.2. For CSTPQSQYYLAEKHL [BTK_HUMAN_344], the enrichment score was inactive: 1.02. IAQGLRLYRPHLASE [BTK_HUMAN_617] was tested, and the enrichment score was inactive: 1.29. With DSERDELYAQWGKGL [BUD13_HUMAN_494] the enrichment score was inactive: 0.645. For ALVLDCHYPEDEVGQ [C1QBP_HUMAN_188], the enrichment score was inactive: 1.51. With SRAMENQYSPTPGTD [C1QR1_HUMAN_644] the enrichment score was inactive: 0.577. SLEKHSWYHGPVSRN [ABL1_HUMAN_128] was tested, and the enrichment score was inactive: 0.85. AHGLLDPYNAFLSAV [CA2D3_HUMAN_924] was tested, and the enrichment score was inactive: 0.756.

The binders below were run against SHP2 N-SH2 domain T42A in the same assay as above. Conditions: peptide library: Human pTyr.
EAQAQREYSEFKRQQ [BECN1_HUMAN_233_YA] was tested, and the enrichment score was inactive: 0.781. For KSKELPLYCSGGLRF [BECN1_HUMAN_352], the enrichment score was inactive: 1.11. With MLVSIDRYLALVKTM [BKRB2_HUMAN_156] the enrichment score was inactive: 2.73. With ARIIDSEYTAQEGAK [BLK_HUMAN_389] the enrichment score was inactive: 0.536. IEKVVAIYDATKDKD [ABI1_HUMAN_455_YA] was tested, and the enrichment score was inactive: 0.933. For EHSDSEMYVMPAEEN [BLNK_HUMAN_84], the enrichment score was inactive: 1.08. In the case of EERKEDQYMKMTVCL [BLVRA_HUMAN_198], the enrichment score is reported as active: 4.08. With SQEVEVAYICSESSS [BLVRA_HUMAN_72] the enrichment score was inactive: 1.03. With ESSSHEDYIRQFLNA [BLVRA_HUMAN_83] the enrichment score was inactive: 0.629. For DSNSKKIYGSQPNFN [BMX_HUMAN_224], the enrichment score was inactive: 0.817. In the case of SARIGDEYAEDSSDE [BOP1_HUMAN_122], the enrichment score is reported as inactive: 1.15. CSTPQSQYYLAEKHL [BTK_HUMAN_344] was tested, and the enrichment score was inactive: 1.11. For IAQGLRLYRPHLASE [BTK_HUMAN_617], the enrichment score was inactive: 1.29. DSERDELYAQWGKGL [BUD13_HUMAN_494] was tested, and the enrichment score was inactive: 0.761. ALVLDCHYPEDEVGQ [C1QBP_HUMAN_188] was tested, and the enrichment score was inactive: 1.2. For SRAMENQYSPTPGTD [C1QR1_HUMAN_644], the enrichment score was inactive: 0.492. For SLEKHSWYHGPVSRN [ABL1_HUMAN_128], the enrichment score was inactive: 0.807. In the case of AHGLLDPYNAFLSAV [CA2D3_HUMAN_924], the enrichment score is reported as inactive: 0.817.

What follows are binders tested against SHP2 N-SH2 domain T52S in the same assay as above. Conditions: peptide library: Human pTyr.
EAQAQREYSEFKRQQ [BECN1_HUMAN_233_YA] was tested, and the enrichment score was inactive: 0.751. In the case of KSKELPLYCSGGLRF [BECN1_HUMAN_352], the enrichment score is reported as inactive: 1.43. With MLVSIDRYLALVKTM [BKRB2_HUMAN_156] the enrichment score was active: 3.22. ARIIDSEYTAQEGAK [BLK_HUMAN_389] was tested, and the enrichment score was inactive: 0.616. With IEKVVAIYDATKDKD [ABI1_HUMAN_455_YA] the enrichment score was inactive: 0.927. With EHSDSEMYVMPAEEN [BLNK_HUMAN_84] the enrichment score was inactive: 1.01. For EERKEDQYMKMTVCL [BLVRA_HUMAN_198], the enrichment score was inactive: 1.31. For SQEVEVAYICSESSS [BLVRA_HUMAN_72], the enrichment score was inactive: 1.23. In the case of ESSSHEDYIRQFLNA [BLVRA_HUMAN_83], the enrichment score is reported as inactive: 0.715. For DSNSKKIYGSQPNFN [BMX_HUMAN_224], the enrichment score was inactive: 0.769. For SARIGDEYAEDSSDE [BOP1_HUMAN_122], the enrichment score was inactive: 1.53. CSTPQSQYYLAEKHL [BTK_HUMAN_344] was tested, and the enrichment score was inactive: 1.19. IAQGLRLYRPHLASE [BTK_HUMAN_617] was tested, and the enrichment score was inactive: 1.71. For DSERDELYAQWGKGL [BUD13_HUMAN_494], the enrichment score was inactive: 0.839. ALVLDCHYPEDEVGQ [C1QBP_HUMAN_188] was tested, and the enrichment score was inactive: 1.21. For SRAMENQYSPTPGTD [C1QR1_HUMAN_644], the enrichment score was inactive: 0.666. For SLEKHSWYHGPVSRN [ABL1_HUMAN_128], the enrichment score was inactive: 1.02. AHGLLDPYNAFLSAV [CA2D3_HUMAN_924] was tested, and the enrichment score was inactive: 0.816.

What follows are binders tested against SHP2 N-SH2 domain wild-type in the same assay as above. Conditions: peptide library: Human pTyr.
With EAQAQREYSEFKRQQ [BECN1_HUMAN_233_YA] the enrichment score was inactive: 0.919. For KSKELPLYCSGGLRF [BECN1_HUMAN_352], the enrichment score was inactive: 1.31. With MLVSIDRYLALVKTM [BKRB2_HUMAN_156] the enrichment score was active: 3.59. With ARIIDSEYTAQEGAK [BLK_HUMAN_389] the enrichment score was inactive: 0.455. In the case of IEKVVAIYDATKDKD [ABI1_HUMAN_455_YA], the enrichment score is reported as inactive: 0.995. EHSDSEMYVMPAEEN [BLNK_HUMAN_84] was tested, and the enrichment score was inactive: 1.21. With EERKEDQYMKMTVCL [BLVRA_HUMAN_198] the enrichment score was inactive: 1.84. In the case of SQEVEVAYICSESSS [BLVRA_HUMAN_72], the enrichment score is reported as inactive: 1.18. In the case of ESSSHEDYIRQFLNA [BLVRA_HUMAN_83], the enrichment score is reported as inactive: 0.683. In the case of DSNSKKIYGSQPNFN [BMX_HUMAN_224], the enrichment score is reported as inactive: 0.895. In the case of SARIGDEYAEDSSDE [BOP1_HUMAN_122], the enrichment score is reported as inactive: 1.79. CSTPQSQYYLAEKHL [BTK_HUMAN_344] was tested, and the enrichment score was inactive: 1.45. In the case of IAQGLRLYRPHLASE [BTK_HUMAN_617], the enrichment score is reported as inactive: 1.87. DSERDELYAQWGKGL [BUD13_HUMAN_494] was tested, and the enrichment score was inactive: 0.735. With ALVLDCHYPEDEVGQ [C1QBP_HUMAN_188] the enrichment score was inactive: 1.26. In the case of SRAMENQYSPTPGTD [C1QR1_HUMAN_644], the enrichment score is reported as inactive: 0.633. With SLEKHSWYHGPVSRN [ABL1_HUMAN_128] the enrichment score was inactive: 1.07. For AHGLLDPYNAFLSAV [CA2D3_HUMAN_924], the enrichment score was inactive: 0.739.
